The values that follow come from article PMC5101189.

Some targets named below: DSN1 (UniProt Q9H410); MIS12 (UniProt Q9H081); NSL1 (UniProt Q96IY1); NUF2 (UniProt Q9BZD4); SPC25 (UniProt Q9HBM1); KNL1 (UniProt Q8NG31).
Assay in all cases: cross-linking mass spectrometry
Details in all cases: BS3, purified complex

The source holds more than one record for some entries. The other results are left out here. The source may hold further records. Some entries list several cross-links; each record is another pair of residues.

Sequence of NSL1 (Q96IY1 whole entry): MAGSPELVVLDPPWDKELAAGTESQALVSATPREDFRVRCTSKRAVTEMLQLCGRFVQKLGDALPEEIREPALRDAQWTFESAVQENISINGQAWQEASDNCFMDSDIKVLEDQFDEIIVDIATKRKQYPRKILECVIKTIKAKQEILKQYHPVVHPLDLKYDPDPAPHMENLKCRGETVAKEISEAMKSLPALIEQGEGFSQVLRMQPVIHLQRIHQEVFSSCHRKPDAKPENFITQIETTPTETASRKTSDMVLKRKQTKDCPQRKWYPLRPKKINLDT
Sequence of ZWINT (O95229 whole entry): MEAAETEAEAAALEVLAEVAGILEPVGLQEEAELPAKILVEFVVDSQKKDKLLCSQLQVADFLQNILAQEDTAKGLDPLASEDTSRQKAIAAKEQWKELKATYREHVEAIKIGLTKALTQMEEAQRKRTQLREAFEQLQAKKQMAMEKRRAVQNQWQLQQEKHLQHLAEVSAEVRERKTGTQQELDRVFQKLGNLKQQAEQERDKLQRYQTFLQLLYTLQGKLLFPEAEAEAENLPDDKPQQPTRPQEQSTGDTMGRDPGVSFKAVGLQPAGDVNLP
Sequence of UniProt Q9H410 (Q9H410 whole entry): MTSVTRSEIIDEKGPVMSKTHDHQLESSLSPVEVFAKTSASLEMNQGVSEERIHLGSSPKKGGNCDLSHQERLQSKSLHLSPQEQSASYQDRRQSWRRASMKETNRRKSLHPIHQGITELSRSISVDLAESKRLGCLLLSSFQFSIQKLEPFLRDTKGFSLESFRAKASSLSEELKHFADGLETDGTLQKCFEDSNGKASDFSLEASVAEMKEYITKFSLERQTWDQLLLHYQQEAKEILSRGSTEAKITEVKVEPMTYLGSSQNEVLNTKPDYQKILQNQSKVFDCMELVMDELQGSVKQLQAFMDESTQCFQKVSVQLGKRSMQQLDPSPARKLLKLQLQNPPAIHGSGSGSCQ
Sequence of UniProt Q9HBM1 (Q9HBM1 whole entry): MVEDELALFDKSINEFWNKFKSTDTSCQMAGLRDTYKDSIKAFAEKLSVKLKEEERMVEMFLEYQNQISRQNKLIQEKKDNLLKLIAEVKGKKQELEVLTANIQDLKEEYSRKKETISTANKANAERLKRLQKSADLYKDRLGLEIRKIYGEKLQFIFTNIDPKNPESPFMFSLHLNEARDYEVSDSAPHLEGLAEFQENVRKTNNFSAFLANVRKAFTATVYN
Sequence of NUF2 (Q9BZD4 whole entry): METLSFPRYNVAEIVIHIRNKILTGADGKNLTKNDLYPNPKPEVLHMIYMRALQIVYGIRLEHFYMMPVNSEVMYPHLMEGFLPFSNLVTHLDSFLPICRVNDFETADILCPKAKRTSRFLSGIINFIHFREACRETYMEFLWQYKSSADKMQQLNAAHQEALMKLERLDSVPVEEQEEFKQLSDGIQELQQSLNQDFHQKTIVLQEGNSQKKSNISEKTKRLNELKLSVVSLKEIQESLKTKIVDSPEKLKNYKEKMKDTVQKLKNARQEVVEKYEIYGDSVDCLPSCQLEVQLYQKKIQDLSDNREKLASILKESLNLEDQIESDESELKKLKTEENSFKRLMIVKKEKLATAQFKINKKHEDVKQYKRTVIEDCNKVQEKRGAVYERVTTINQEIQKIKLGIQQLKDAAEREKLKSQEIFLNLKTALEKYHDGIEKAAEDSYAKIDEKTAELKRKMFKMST
Sequence of NUF2, Q9BZD4 (Q9BZD4 whole entry): as above
Sequence of SPC24 (Q8NBT2 whole entry): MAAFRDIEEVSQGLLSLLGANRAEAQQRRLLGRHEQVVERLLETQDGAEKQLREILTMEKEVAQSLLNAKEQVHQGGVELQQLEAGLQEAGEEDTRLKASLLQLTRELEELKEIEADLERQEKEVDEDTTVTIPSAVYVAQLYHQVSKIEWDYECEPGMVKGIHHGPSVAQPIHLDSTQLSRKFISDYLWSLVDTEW
Sequence of NDC80 (O14777 whole entry): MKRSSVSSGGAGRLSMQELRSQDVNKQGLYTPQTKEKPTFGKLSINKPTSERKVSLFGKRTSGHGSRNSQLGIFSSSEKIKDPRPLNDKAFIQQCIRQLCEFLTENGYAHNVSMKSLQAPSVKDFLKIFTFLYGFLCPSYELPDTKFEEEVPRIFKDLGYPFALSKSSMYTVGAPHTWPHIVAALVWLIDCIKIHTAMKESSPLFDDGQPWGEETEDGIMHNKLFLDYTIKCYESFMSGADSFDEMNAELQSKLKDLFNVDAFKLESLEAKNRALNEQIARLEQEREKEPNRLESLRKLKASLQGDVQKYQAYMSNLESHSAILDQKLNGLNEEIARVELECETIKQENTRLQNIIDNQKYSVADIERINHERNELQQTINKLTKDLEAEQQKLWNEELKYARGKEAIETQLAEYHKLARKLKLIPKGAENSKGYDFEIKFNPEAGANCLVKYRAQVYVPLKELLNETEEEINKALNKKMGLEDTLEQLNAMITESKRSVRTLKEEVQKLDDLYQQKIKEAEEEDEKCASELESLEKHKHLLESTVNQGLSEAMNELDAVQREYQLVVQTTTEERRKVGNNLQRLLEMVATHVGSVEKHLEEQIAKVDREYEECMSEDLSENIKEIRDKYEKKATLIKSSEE
Sequence of MIS12, Q9H081 (Q9H081 whole entry): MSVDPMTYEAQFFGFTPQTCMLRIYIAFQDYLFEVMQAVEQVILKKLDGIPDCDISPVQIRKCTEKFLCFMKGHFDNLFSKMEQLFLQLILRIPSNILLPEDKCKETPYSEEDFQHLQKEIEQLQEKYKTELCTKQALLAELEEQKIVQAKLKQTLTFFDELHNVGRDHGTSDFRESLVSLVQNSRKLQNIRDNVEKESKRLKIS
Sequence of MIS12 (Q9H081 whole entry): as above
Sequence of PMF1 (Q6P1K2 whole entry): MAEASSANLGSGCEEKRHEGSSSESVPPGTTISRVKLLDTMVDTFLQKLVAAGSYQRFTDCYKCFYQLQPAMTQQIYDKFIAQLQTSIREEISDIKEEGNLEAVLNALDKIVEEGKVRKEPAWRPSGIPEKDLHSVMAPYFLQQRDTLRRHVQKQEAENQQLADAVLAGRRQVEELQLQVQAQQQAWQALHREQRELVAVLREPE
Sequence of NSL1, Q96IY1 (Q96IY1 whole entry): as the sequence (Q96IY1 whole entry) above
Sequence of CENPC (Q03188 whole entry): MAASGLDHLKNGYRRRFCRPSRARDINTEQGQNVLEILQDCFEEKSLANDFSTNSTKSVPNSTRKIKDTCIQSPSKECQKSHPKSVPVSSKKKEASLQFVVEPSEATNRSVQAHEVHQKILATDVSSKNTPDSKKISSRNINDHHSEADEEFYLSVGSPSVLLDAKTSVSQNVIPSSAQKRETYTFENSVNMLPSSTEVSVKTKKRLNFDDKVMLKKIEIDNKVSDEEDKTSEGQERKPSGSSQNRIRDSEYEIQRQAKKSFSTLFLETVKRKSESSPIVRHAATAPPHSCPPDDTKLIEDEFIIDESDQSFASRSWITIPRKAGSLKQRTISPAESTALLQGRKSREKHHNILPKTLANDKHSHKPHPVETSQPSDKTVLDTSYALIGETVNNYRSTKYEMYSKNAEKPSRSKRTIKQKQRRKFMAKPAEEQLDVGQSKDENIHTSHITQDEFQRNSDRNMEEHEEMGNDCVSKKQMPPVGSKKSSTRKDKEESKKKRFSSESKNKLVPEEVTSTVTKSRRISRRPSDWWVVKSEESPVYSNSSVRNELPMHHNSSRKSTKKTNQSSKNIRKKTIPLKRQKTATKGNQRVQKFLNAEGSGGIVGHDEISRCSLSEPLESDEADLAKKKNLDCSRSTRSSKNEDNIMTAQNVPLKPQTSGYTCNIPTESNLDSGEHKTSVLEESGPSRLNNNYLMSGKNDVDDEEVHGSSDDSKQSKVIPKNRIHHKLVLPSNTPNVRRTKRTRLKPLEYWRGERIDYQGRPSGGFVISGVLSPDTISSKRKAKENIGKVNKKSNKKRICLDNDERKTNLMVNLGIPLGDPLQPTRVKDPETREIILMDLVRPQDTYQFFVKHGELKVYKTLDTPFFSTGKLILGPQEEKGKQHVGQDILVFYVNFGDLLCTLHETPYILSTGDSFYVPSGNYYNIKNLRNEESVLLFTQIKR

Take PMF1, Q6P1K2: the cross-linked residues entry in the experiment with DSN1 is “K116 - K61 and K131 - K217 and K154 - K61 and K154 - K248”; with MIS12 it was “K63 - K62 and K110 - K103 and K116 - K103 and K154 - K135”; in the experiment with NSL1, “K116 - K127 and K154 - K149”. Take CENPC, Q03188: the cross-linked residues result with NUF2 was “K91 - K250 and K128 - K259”. As to NUF2, Q9BZD4, the cross-linked residues result in the experiment with SPC25 was “K456 - K21 and K456 - K37 and K456 - K46 and K461 - K46 and K461 - K50 and K461 - K52”.

NDC80, O14777: the cross-linked residues entry with SPC25 is “K598 - K21 and K606 - K19 and K606 - K21 and K629 - K41 and K638 - K73”.

On to ZWINT, O95229, for which the cross-linked residues entry with KNL1 is “K51 - K2033 and K116 - K2043 and K239 - K2118 and K264 - K2118”. As to SPC24, Q8NBT2, the cross-linked residues entry was “K50 - K458 and K50 - K461” with NUF2; “K98 - K84 and K98 - K92 and K98 - K93” with SPC25. On to MIS12, Q9H081, for which the cross-linked residues result in the experiment with DSN1 is “K103 - K61 and K129 - K248 and K129 - K253 and K197 - K315 and K200 - K315 and K203 - K315”. Take NSL1, Q96IY1: the cross-linked residues result with DSN1 was “K127 - K61 and K132 - K237 and K149 - K61 and K149 - K248 and K231 - K322 and K262 - K322 and K268 - K315 and K268 - K322”; with MIS12 it was “K127 - K103 and K227 - K203 and K268 - K197”.
